Assay results taken from publication PMC4336329 (PLoS ONE, 2015).
The whole screen tested about 310,000 compounds, of which about 2,200 (0.71%) showed an effect of 50% or more. The effect is printed as a negative number. The list shows a part of the results.

Molecular target: human ether-à-go-go-related gene (hERG) potassium channel (human, UniProt Q12809)
Assay: primary screen, population patch clamp on CHO cells stably expressing hERG

Sequence of human ether-à-go-go-related gene (hERG) potassium channel (Q12809 whole entry, looked up): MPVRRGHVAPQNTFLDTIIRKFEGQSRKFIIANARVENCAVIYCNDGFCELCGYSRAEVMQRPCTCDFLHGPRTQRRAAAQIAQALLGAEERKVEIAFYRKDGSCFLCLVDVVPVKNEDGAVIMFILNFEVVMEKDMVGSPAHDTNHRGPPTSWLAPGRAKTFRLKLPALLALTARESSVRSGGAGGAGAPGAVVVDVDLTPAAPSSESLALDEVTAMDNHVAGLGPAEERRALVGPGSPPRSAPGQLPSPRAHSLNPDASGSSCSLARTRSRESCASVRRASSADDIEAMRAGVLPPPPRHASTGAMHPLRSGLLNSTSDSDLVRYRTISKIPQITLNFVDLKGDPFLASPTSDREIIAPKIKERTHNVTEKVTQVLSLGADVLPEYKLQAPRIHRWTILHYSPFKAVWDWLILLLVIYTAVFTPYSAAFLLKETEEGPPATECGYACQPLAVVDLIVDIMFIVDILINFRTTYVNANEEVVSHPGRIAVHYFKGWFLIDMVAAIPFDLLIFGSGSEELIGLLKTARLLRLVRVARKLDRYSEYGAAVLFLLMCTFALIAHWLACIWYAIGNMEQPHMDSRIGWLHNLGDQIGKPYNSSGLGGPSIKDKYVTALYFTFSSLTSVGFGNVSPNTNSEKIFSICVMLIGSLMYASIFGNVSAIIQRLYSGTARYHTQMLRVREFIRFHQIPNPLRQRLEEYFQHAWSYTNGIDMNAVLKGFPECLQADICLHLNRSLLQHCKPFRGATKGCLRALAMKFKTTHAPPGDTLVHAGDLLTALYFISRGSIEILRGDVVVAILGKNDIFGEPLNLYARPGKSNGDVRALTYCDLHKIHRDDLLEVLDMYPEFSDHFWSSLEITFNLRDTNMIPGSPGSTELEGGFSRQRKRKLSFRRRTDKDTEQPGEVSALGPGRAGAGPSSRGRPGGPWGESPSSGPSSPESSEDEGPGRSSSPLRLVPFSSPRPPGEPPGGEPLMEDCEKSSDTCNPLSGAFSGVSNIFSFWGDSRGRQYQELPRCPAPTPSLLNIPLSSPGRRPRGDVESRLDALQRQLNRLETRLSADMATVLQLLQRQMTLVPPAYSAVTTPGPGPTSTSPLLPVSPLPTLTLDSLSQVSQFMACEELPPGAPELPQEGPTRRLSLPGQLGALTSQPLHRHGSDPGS

Row | SMILES | hERG current change (%, negative = inhibition) at 1uM [%]
1 | Cl.NCC(O)c1cc(O)c(O)cc1F (stereo not drawn) | 5.92
2 | Cn1c(SCC(=O)c2ccc3c(c2)Cc2ccccc2-3)nnc1-c1ccccc1 | 14.1
3 | CC(=O)N1Cc2ccccc2CC1C(=O)O (stereo not drawn) | 6.94
4 | COc1ccc(Br)cc1S(=O)(=O)N1CCN=C1C | 5.76
5 | COc1cc(C(=O)NCc2nnc(SCC(=O)NC3CCCC3)o2)cc(OC)c1OC | 12.2
6 | Cc1occc1-c1nnc(SCC(=O)Nc2ccccc2)n1C | 11.8
7 | COc1ccc(C(=O)Nc2nnc(SCC(=O)NC3CC3)s2)cc1 | 10.3
8 | COc1ccc(C(=O)NC2(C(F)(F)F)NC(=O)N(CCCc3ccccc3)C2=O)cc1OC (stereo not drawn) | 12.8
9 | CSc1nsc(SCC(=O)N2CCCc3ccccc32)n1 | 8.05
10 | COc1ccc(S(=O)(=O)N2CCCC2)c(Cl)c1Cl | 7.91
11 | CCOC(=O)C/C(C)=N/NC(=O)Nc1ccccc1 | 11.9
12 | O=C(Cn1cnc2ccccc2c1=O)c1ccccc1 | 8.89
13 | O=C(Cc1cccc2ccccc12)N/N=C/c1ccc(Sc2cccc3cccnc23)o1 | 9.69
14 | O=C(CSc1nnc(-c2ccco2)o1)N1CCCCC1 | 15.6
15 | C[C@H](NC(=O)[C@@H]1Cc2ccccc2CN1)C(=O)NC1CCCCC1 | 17.8
16 | CC(C)CCNC(=S)Nc1ccc2nc3n(c(=O)c2c1)CCCCC3 | -1.3
17 | Cc1ccc(C(=O)C[n+]2cc(Br)cc(Br)c2)cc1.[Br-] | 8.99
18 | CCN(CC)S(=O)(=O)c1ccc(N2CCOCC2)c(NS(=O)(=O)c2ccc(C)cc2)c1 | 8.83
19 | COCCN(C(=O)CSc1nnc(-c2cccc(OC)c2)n1C)c1c(N)n(Cc2ccccc2)c(=O)[nH]c1=O | 12.2

Row | SMILES | hERG current change (%, negative = inhibition) at 1uM [%]
20 | CC(Oc1cc2oc(=O)c3c(c2cc1Cl)CCC3)C(=O)NCc1cccnc1 (stereo not drawn) | 5.33
21 | COc1ccc(NS(=O)(=O)c2ccc(C)c(NC(=O)NC3CCCCC3)c2)cc1 | -8.31
22 | CCN(CC(=O)Nc1ccc(NC(C)=O)cc1)C(=O)C12CC3CC(CC(Cl)(C3)C1)C2 | -4.61
23 | O=S(=O)(NCC(c1ccco1)N1CCOCC1)c1ccc(Cl)cc1 (stereo not drawn) | 3.72
24 | CC(OCC(O)CNCC1COc2ccccc2O1)c1ccc(Cl)cc1 (stereo not drawn) | 11.3
25 | CCOC(=O)C1CCN(C(=O)c2ccc(Oc3cc(Cl)cc(Cl)c3)o2)CC1 | 7.39
26 | CCC(C)N1CC(O)=C(c2nc3ccccc3[nH]2)C1=N (stereo not drawn) | 3.5
27 | CCOc1ccc(Cl)cc1CNc1nnnn1C | 16.1
28 | COc1ccc(CN2C(=O)C(C)=C(C)C2OC)cc1 (stereo not drawn) | 12.1
29 | COc1ccc(C(=O)CSc2nnc(CN3CCCCC3)n2-c2ccc(Cl)cc2)cc1OC | -1.14
30 | O=C(O)C12CC3CC(C1)CC(n1cnc(Cl)n1)(C3)C2 | 15.9
31 | CN(C(=O)COC(=O)c1cc(S(=O)(=O)N2CCOCC2)c(Cl)cc1Cl)C1CCS(=O)(=O)C1 (stereo not drawn) | 6.13
32 | CS(=O)(=O)c1ccccc1-c1nnc(NC(=O)Cc2ccccc2)o1 | 16.4
33 | CCOc1cc(C(=O)Nc2ccccc2N2CCOCC2)ccc1OCC(=O)N1CCOCC1 | 14
34 | Cc1nn(C)c(C)c1CN(C)C(=O)CCCC(=O)O | 1.91
35 | Cc1cccc(NC(=O)[C@H](C)NC(=O)[C@@H]2Cc3ccccc3CN2C(=O)OC(C)(C)C)c1 | 9.24
36 | Cc1ccc(S(=O)(=O)NCCN=C(CN2CCCC2)NS(=O)(=O)c2ccc(C)cc2)cc1 | -2.49
37 | O=C(CSc1nnnn1Cc1ccccc1)c1ccc(F)cc1 | -2.96
38 | Cc1ccc2nc(-c3ccc(N4C(=O)CC(N5CCC(C(N)=O)CC5)C4=O)cc3)sc2c1 (stereo not drawn) | 16.7

Row | SMILES | hERG current change (%, negative = inhibition) at 1uM [%]
39 | COc1cc(/C=N\NC(=O)c2ccc(Cl)cc2)ccc1Oc1ccc([N+](=O)[O-])cn1 | -1.96
40 | CCCCNC(=O)COC(=O)c1cc(Br)ccc1Cl | 8.6
41 | Cc1cccc(COc2ccc(/C(O)=C3\C(=O)C(=O)N(CCN(C)C)C3c3ccncc3)cc2)c1 (stereo not drawn) | 14.1
42 | COc1ccc(NC(=O)Cc2nnc(SCC(=O)NC3CCCC3)n2C)cc1 | 9.4
43 | COc1ccc(OC)c(-c2cc(C3CCN(C(=O)OC(C)(C)C)CC3)[nH]n2)c1 | 10.5
44 | CCOc1cc(CNCc2ccccn2)ccc1OCC(=O)NC1CCCCC1.Cl | 6.57
45 | Cc1cc(C(F)(F)F)nn1Cc1ccc(C(=O)NCc2ccco2)o1 | 21.6
46 | COc1ccccc1-c1c(-c2ccc(O)cc2O)n[nH]c1C(F)(F)F | 7.7
47 | Cc1ccc(NCc2ccco2)cc1C.O=C(O)C(=O)O | 5.96
48 | CCOC(=O)c1ccc(NC(=O)c2ccc[n+]([O-])c2)cc1 | 7.24
49 | CC/C(=N/OC(=O)c1cccc(C)c1)C(=O)c1cccs1 | 4.99
50 | O=C(CN1C(=O)c2ccccc2C1=O)N1CCN(c2ccccn2)CC1 | 13.3
51 | CCC(=O)Nc1ccc(S(=O)(=O)Nc2cccc(C)c2)cc1OC | 6.57
52 | Cc1ccc(C(=O)NNC(=O)c2ccncc2)cc1C | 14
53 | CC(=O)c1cc(C(=O)Nc2ccccc2C(=O)O)oc1C | 4.13
54 | COC(=O)c1ccc(N2C(=O)C3CC=CC(C)C3C2=O)cc1 (stereo not drawn) | 15.2
55 | CC(=O)c1ccc(NC(=O)c2c(C)nn(-c3ccccc3)c2Cl)cc1 | 13
56 | CC(CC(=O)NCc1ccco1)S(=O)(=O)c1ccc2c(c1)CCN2C(=O)C1CC1 (stereo not drawn) | 11.4
57 | CCOC(=O)C1=C(C)N=C2c3ccccc3C(=O)C2C1c1ccc(C)cc1 (stereo not drawn) | 10.6
